# Laboratory results published in the supplement of paper PMC7335073.
# Over roughly 4,100 sequences, “relative CpG methylation activity (normalised to average over all NNNCGNNN flanks)” has its median near 0.94; the highest 2% begin near 1.9. The list shows a part of the results.
# Biological target: DNMT3B catalytic domain (mouse) (UniProt O88509)
# Assay: relative CpG methylation activity (normalised to average over all NNNCGNNN flanks) (relative (1 = mean)); higher = more methylation of the central CpG
# Conditions: system: in vitro, murine catalytic domain; CpG state: hemimethylated substrate pool; residues: 558-859
# Procedure, shortened: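 Pooled dsDNA substrates with a central CpG inside 10 random flanking nucleotides were methylated by murine DNMT3A or DNMT3B catalytic domain with 0.8 mM S-adenosyl-L-methionine in HEPES pH 7.5 buffer for 60 min at 37 °C. The DNA then went through proteinase K, BsaI-HFv2 digestion, hairpin ligation, bisulfite conversion and two-step PCR before Illumina sequencing. Relative methylation activity is the average methylation of each context with three flanking bases per side, divided by the mean over all contexts. Each experiment had two independent repeats.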
# UniProt O88509, sequence (O88509 558-859): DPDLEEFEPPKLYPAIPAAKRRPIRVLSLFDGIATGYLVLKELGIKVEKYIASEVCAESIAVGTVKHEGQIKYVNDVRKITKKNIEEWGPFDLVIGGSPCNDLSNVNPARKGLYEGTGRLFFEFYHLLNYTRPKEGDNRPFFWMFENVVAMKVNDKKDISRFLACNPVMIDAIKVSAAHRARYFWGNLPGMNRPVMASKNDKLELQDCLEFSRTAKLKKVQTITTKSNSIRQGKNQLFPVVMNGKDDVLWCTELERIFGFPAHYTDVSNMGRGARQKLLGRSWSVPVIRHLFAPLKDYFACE
row,Sequence,relative CpG methylation activity
1,GTACGGAC,1.51
2,CGCCGATG,0.876
3,GGACGCGC,1.08
4,CTTCGTGT,0.534
5,TGGCGATT,1.03
6,AACCGCGC,0.323
7,AGACGACC,1.36
8,GTGCGTCC,1
9,CGGCGATA,0.906
10,GTTCGTCT,0.748
11,GATCGGAC,0.703
12,GATCGTGT,0.224
13,ACACGCGG,1.1
14,ATGCGGAA,0.874
15,CTCCGTTG,0.425
16,CCGCGAAA,0.93
17,AGCCGTGC,0.123
18,TAGCGAGT,1.07
19,AATCGCAA,0.359
20,CTTCGGGG,1.54
21,CAGCGAAA,0.939
22,AGGCGGTA,0.481
23,AGACGCGC,1.2
24,TTGCGAAG,0.966
25,GTCCGCTA,0.847

row,Sequence,relative CpG methylation activity
1,CAACGCTG,1.28
2,CCGCGGCC,1.3
3,ATCCGGTC,1.28
4,GACCGTGC,0.31
5,ACTCGTAT,0.275
6,TTCCGCCC,1.35
7,GAGCGAAA,0.801
8,AACCGATT,1.2
9,ACTCGTTA,0.3
10,GCCCGTCG,0.607
11,AAGCGTTC,0.586
12,CGACGTCA,0.716
13,GGACGGGG,1.23
14,CTGCGCAT,0.967
15,ACACGAAC,1.71
16,GACCGTTT,0.177
17,GCCCGATT,1.53
18,CTTCGGAA,1.22
19,CCGCGCCT,0.73
20,AAGCGCCG,0.713
21,GGACGAAA,1.19
22,CAGCGGTT,1.06
23,AGTCGGTT,1.27
24,AAGCGATG,0.771
25,CGTCGCCC,1.09

row,Sequence,relative CpG methylation activity
1,TTTCGACT,1.54
2,TCACGTGG,0.466
3,GACCGGTT,0.949
4,AGCCGACA,0.675
5,CTTCGCCT,1.22
6,GGACGCAT,0.454
7,TAACGCTT,1.19
8,TAGCGAGC,1.26
9,CGTCGCTA,0.476
10,TAACGCTC,1.54
11,ACGCGACG,0.786
12,TTTCGCAG,0.732
13,TGCCGTAA,0.264
14,ATTCGGCT,1.69
15,TCCCGGTG,1.36
16,TTGCGGGA,1.34
17,TTGCGGGC,1.4
18,GACCGGAT,0.42
19,GTGCGTCG,0.758
20,ACCCGTGC,0.783
21,TTCCGATG,1.47
22,CAGCGACC,0.972
23,GGTCGTCT,0.505
24,GCTCGCGG,0.289
25,CTGCGATC,1.46

row,Sequence,relative CpG methylation activity
1,TATCGGAG,0.733
2,TCACGGCG,1.89
3,TCTCGGTT,0.917
4,TAACGGTC,1.52
5,TAACGCCC,1.56
6,GGCCGTTC,0.252
7,TGTCGCAA,0.427
8,GTCCGATA,1.62
9,CCCCGGTA,1.5
10,AAACGACC,1.48
11,GTTCGCCT,1.22
12,GCACGGTT,1.31
13,CAACGCAC,1.21
14,CGCCGGAT,0.504
15,CCCCGAAT,1.61
16,CTACGCTA,1.47
17,CATCGGGG,1.21
18,TATCGCAC,0.634
19,CTTCGCTG,1.06
20,AAGCGCAG,0.241
21,CTGCGTCG,1.08
22,AGGCGGGG,0.357
23,CTCCGTTA,0.542
24,CATCGAGG,1.71
25,GAACGATT,1.71

row,Sequence,relative CpG methylation activity
1,TGCCGTTG,0.159
2,AGACGGGA,1.28
3,CCACGCCC,1.47
4,CCCCGGAA,1.02
5,CCACGCTC,1.44
6,AAGCGGAC,0.569
7,GACCGCGC,0.39
8,AACCGCTT,0.34
9,ATTCGCTG,0.586
10,GTCCGAGG,1.82
11,TTGCGTGT,0.841
12,AAGCGTTA,0.394
13,CCTCGTCT,0.775
14,GGTCGATC,1.48
15,TCACGACT,1.44
16,TCACGCAA,0.748
17,TGGCGTGT,0.0208
18,CCCCGGAG,0.625
19,TTGCGAAC,1.41
20,CGCCGGTC,1.23
21,GGTCGGTG,0.742
22,ACCCGTTC,0.948
23,AACCGCAT,0.311
24,CGTCGTAC,0.909
25,TAGCGCCC,0.741

row,Sequence,relative CpG methylation activity
1,CATCGGAG,0.952
2,AGTCGTTT,0.495
3,TATCGTTC,0.641
4,GCTCGGCC,1.64
5,AATCGGGA,1.26
6,CTACGTAA,1.32
7,TGCCGACG,0.593
8,TAACGATA,1.81
9,GGTCGAAA,1.08
10,CAGCGTAT,0.615
11,ATTCGAAG,0.959
12,CTACGGAA,1.68
13,TAACGTAT,0.983
14,TTCCGGAG,0.913
15,AACCGGAG,0.433
16,TGGCGGCC,0.876
17,CGGCGGTG,0.397
18,GTTCGTCA,0.524
19,TTTCGGCT,2.04
20,CACCGCCG,0.625
21,TCGCGCCT,0.882
22,GGACGGTC,1.37
23,AGTCGCTG,0.623
24,TAGCGTAG,0.69
25,TAGCGGGA,1.02

row,Sequence,relative CpG methylation activity
1,CCCCGATC,1.88
2,GAGCGGGT,0.902
3,GCCCGACT,1.33
4,TCGCGGTG,0.846
5,CTTCGTTC,1.18
6,TGGCGAGT,0.781
7,ATACGGTA,1.64
8,GGTCGCAA,0.259
9,TTGCGATT,1.32
10,CTCCGGCA,1.88
11,CAGCGTAC,0.833
12,TACCGTGT,0.198
13,CGCCGTAC,0.561
14,CTACGCGC,1.73
15,CCGCGATG,0.901
16,TTACGTTT,1.19
17,CAACGCCG,1.32
18,ACACGTTG,0.587
19,TACCGCAA,0.249
20,CTCCGTAA,0.725
21,AAGCGGAG,0.321
22,TGCCGCCT,0.358
23,GTTCGCAC,0.91
24,CGGCGTCA,0.45
25,CACCGTAC,0.99

row,Sequence,relative CpG methylation activity
1,AAGCGTCT,0.966
2,CTACGTAG,0.804
3,CCGCGAAT,0.806
4,TACCGATT,1.29
5,ATGCGGGG,1.14
6,CCTCGGAG,0.787
7,GCGCGCCT,0.748
8,CCCCGTGT,0.336
9,CATCGGAT,0.93
10,GGTCGCTA,0.694
11,CCCCGCGG,0.703
12,GATCGTCA,0.485
13,ACTCGGAT,0.587
14,AATCGCTC,0.903
15,CCGCGATA,1.11
16,GCACGAGA,1.62
17,CAGCGACG,0.851
18,GTACGTGC,1.1
19,TGCCGAGC,1.58
20,GTACGCCC,1.64
21,AAGCGTAG,0.542
22,TAGCGGAC,0.794
23,TCGCGGCC,1.14
24,AACCGTGG,0.0794
25,CCGCGCGC,0.806

row,Sequence,relative CpG methylation activity
1,AGACGCCA,1.16
2,CGACGCCC,1.12
3,CACCGAGG,1.42
4,TGTCGACA,1.23
5,CCCCGTTT,0.447
6,GCTCGCAG,0.329
7,GATCGATT,1.53
8,GAACGGGC,1.64
9,GGCCGTAT,0.194
10,GACCGCGA,0.184
11,CTGCGCCT,1.15
12,AAGCGCGG,0.509
13,TAGCGTGT,0.49
14,CAGCGTGG,0.339
15,CAGCGGGT,0.92
16,CAACGTCC,1.3
17,CCTCGTTA,0.507
18,TCCCGTTC,0.979
19,TCCCGCTT,0.754
